The supplement of paper PMC4604168 (melanoma cell lines)
This is one part of the list. Many values rest on one well or one pass, so single values are uncertain.

These compounds were tested on RPMI7951 (assay: cell count relative to DMSO control; melanoma cells; higher = more viable cells). Settings: library dose: standard library concentration; 72 h.
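Also: cells treated in 1,536-well plates, then fixed and DAPI-stained, with nuclei counted from automated high-throughput microscope images.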

Row | Compound | cell count
1 | Cc1ccc(NC(=O)c2cccc(N(C)C)c2)cc1NC(=O)c1ccc(O)cc1 + Cc1cc(N2CCOCC2)cc2[nH]c(-c3c(NC[C@@H](O)c4cccc(Cl)c4)cc[nH]c3=O)nc12 [BMS536924] (first compound 10 µM, partner dose 1 µM) | 106%
2 | NC(=O)c1ccc(N(C(N)=O)c2c(F)cccc2F)nc1-c1ccc(F)cc1F + CCCCCCCCCCCC1=C(O)C(=O)C=C(O)C1=O [Embelin] (first compound 2 µM, partner dose 6 µM) | 78.9%
3 | NC(=O)c1ccc(N(C(N)=O)c2c(F)cccc2F)nc1-c1ccc(F)cc1F + Cn1nnc2c(C(N)=O)ncn2c1=O [temozolomide] (first compound 2 µM, partner dose 10 µM) | 85.3%
4 | CN(NC(=O)CC(=O)NN(C)C(=S)c1ccccc1)C(=S)c1ccccc1 + COc1ccc2c(c1)CCC1C2CCC2(C)C(NCCCCCCN3C(=O)C=CC3=O)CCC12 [U73122] (first compound 0.03 µM, partner dose 2 µM) | 73.4%
5 | NC(=O)c1ccc(N(C(N)=O)c2c(F)cccc2F)nc1-c1ccc(F)cc1F + CN(NC(=O)CC(=O)NN(C)C(=S)c1ccccc1)C(=S)c1ccccc1 [STA4783] (first compound 2 µM, partner dose 0.03 µM) | 53.8%
6 | Cc1ccc(NC(=O)c2cccc(N(C)C)c2)cc1NC(=O)c1ccc(O)cc1 + O=C(Nc1cccc(Cl)c1)Nc1ncc(CCNc2ncnc3ccsc23)s1 [SNS314] (first compound 10 µM, partner dose 0.004 µM) | 50.8%
7 | CCCCCCCCc1ccc(CCC(N)(CO)CO)cc1 [fingolimod] + COC(=O)c1sccc1S(=O)(=O)Nc1ccc(Nc2ccccc2)cc1OC [GSK0660] (first compound 10 µM, partner dose 5 µM) | 5.83%
8 | CCCCCCCCc1ccc(CCC(N)(CO)CO)cc1 [fingolimod] + CCCCCCCCCCCC1=C(O)C(=O)C=C(O)C1=O [Embelin] (first compound 10 µM, partner dose 6 µM) | 48%
9 | NC(=O)c1ccc(N(C(N)=O)c2c(F)cccc2F)nc1-c1ccc(F)cc1F + CN1CCN(c2ccc3nc(-c4c(N)c5c(F)cccc5[nH]c4=O)[nH]c3c2)CC1 [Dovitinib] (first compound 2 µM, partner dose 0.5 µM) | 123%
10 | CC(C)(C)c1cnc(CSc2cnc(NC(=O)C3CCNCC3)s2)o1 + NCC(=O)Nc1ccc(-n2nc(C(F)(F)F)cc2-c2ccc3c(ccc4ccccc43)c2)cc1 [OSU03012] (first compound 0.05 µM, partner dose 5 µM) | 23.9%
11 | CCCCCCCCc1ccc(CCC(N)(CO)CO)cc1 [fingolimod] + NC1(c2ccc(-c3nc4ccn5c(=O)[nH]nc5c4cc3-c3ccccc3)cc2)CCC1 [MK2206] (first compound 10 µM, partner dose 2 µM) | 1.02%
12 | CC(C)(C)c1cnc(CSc2cnc(NC(=O)C3CCNCC3)s2)o1 + Oc1cc(-c2nc(-c3ccccc3)[nH]c2-c2ccncc2)ccc1Cl [L779450] (first compound 0.05 µM, partner dose 1 µM) | 52.1%
13 | CCc1ccc(CCOc2ccc(CC3SC(=O)NC3=O)cc2)nc1 (stereo not drawn) [pioglitazone] + Oc1nc(-c2ccc(C(F)(F)F)cc2)nc2c1CSCC2 [XAV939] (first compound 10 µM, partner dose 10 µM) | 66.9%
14 | COc1cc2c(Oc3ccc4[nH]c(C)cc4c3F)ncnc2cc1OCCCN1CCCC1 [cediranib] + Cn1cc(/C=C2\C(=O)Nc3cccnc32)c2ccccc21 [GW441756] (first compound 2 µM, partner dose 2 µM) | 70%
15 | CCCCCCCCc1ccc(CCC(N)(CO)CO)cc1 [fingolimod] + Cn1cncc1[C@@](N)(c1ccc(Cl)cc1)c1ccc2c(c1)c(-c1cccc(Cl)c1)cc(=O)n2C [tipifarnib] (first compound 10 µM, partner dose 0.05 µM) | 1.51%
16 | CCc1ccc(CCOc2ccc(CC3SC(=O)NC3=O)cc2)nc1 (stereo not drawn) [pioglitazone] + Cc1cc([N+](=O)[O-])ccc1NS(=O)(=O)c1cc(Cl)ccc1Cl [FH535] (first compound 10 µM, partner dose 5 µM) | 102%
17 | CCCCCCCCc1ccc(CCC(N)(CO)CO)cc1 [fingolimod] + COCC[n+]1c2c(n(Cc3cnccn3)c1C)C(=O)c1ccccc1C2=O [YM155] (first compound 10 µM, partner dose 0.002 µM) | 1.18%
18 | NC(=O)c1ccc(N(C(N)=O)c2c(F)cccc2F)nc1-c1ccc(F)cc1F + O=C1NC(=O)/C(=C/c2ccc(-c3ccc(F)cc3O)o2)S1 [AS252424] (first compound 2 µM, partner dose 5 µM) | 81.2%
19 | NC(=O)c1ccc(N(C(N)=O)c2c(F)cccc2F)nc1-c1ccc(F)cc1F + Cc1nc(Nc2ncc(C(=O)Nc3c(C)cccc3Cl)s2)cc(N2CCN(CCO)CC2)n1 [dasatanib] (first compound 2 µM, partner dose 0.02 µM) | 27.5%
20 | CC(C)(C)c1cnc(CSc2cnc(NC(=O)C3CCNCC3)s2)o1 + COc1cc2c(Oc3ccc4[nH]c(C)cc4c3F)ncnc2cc1OCCCN1CCCC1 [cediranib] (first compound 0.05 µM, partner dose 2 µM) | 9.06%
21 | Cc1ccc(NC(=O)c2cccc(N(C)C)c2)cc1NC(=O)c1ccc(O)cc1 + CO[C@@H]1[C@H](N(C)C(=O)c2ccccc2)C[C@H]2O[C@]1(C)n1c3ccccc3c3c4c(c5c6ccccc6n2c5c31)C(=O)NC4 [Midostaurin] (first compound 10 µM, partner dose 0.4 µM) | 31.6%
22 | CCCCCCCCc1ccc(CCC(N)(CO)CO)cc1 [fingolimod] + Oc1nc(-c2ccc(C(F)(F)F)cc2)nc2c1CSCC2 [XAV939] (first compound 10 µM, partner dose 10 µM) | 52.2%
23 | Cc1ccc(NC(=O)c2cccc(N(C)C)c2)cc1NC(=O)c1ccc(O)cc1 + CN(NC(=O)CC(=O)NN(C)C(=S)c1ccccc1)C(=S)c1ccccc1 [STA4783] (first compound 10 µM, partner dose 0.03 µM) | 56%
